# Measurements as given in PubChem BioAssay AID504332 (National Center for Advancing Translational Sciences (NCATS), 2011).
# In all, about 350,000 compounds went through this assay and about 31,000 (8.9%) were called active. Inconclusive results, whose numbers are uncertain, are shown with a selection of clear calls. Calls come from the whole dose curve; as a rule, active = well fitted inhibition curve with a large enough effect; inconclusive = small, poorly fitted or top-dose-only effect; inactive = no such curve, though single readings can be large or run the other way. Potencies of inconclusive entries are doubtful fits and often do not repeat.
# Biological target: Histone-lysine N-methyltransferase EHMT2 (Homo sapiens) (UniProt Q96KQ7)
# Experiment: qHTS Assay for Inhibitors of Histone Lysine Methyltransferase G9a; note: nearly all actives have a fitted effect of over 75% in size
# Conditions: G9a H3K9 monomethylation, AlphaScreen, 2 h; activity, negative = inhibition: at 59 µM (top of the series) unless noted
# In short: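 Signal arises when biotinylated H3K9 peptide, once monomethylated, bridges streptavidin donor and antibody-captured acceptor beads. Enzyme at 20 nM was preincubated 15 min with test compounds; peptide 500 nM and SAM 20 uM then reacted for 2 h.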
# % is set by controls: 0 for no effect and ±100 for the full control effect; potency is the fitted concentration of half-maximal effect; tags give direction and shape of the fitted curve.
# Sequence of UniProt Q96KQ7 (Q96KQ7 whole entry, looked up): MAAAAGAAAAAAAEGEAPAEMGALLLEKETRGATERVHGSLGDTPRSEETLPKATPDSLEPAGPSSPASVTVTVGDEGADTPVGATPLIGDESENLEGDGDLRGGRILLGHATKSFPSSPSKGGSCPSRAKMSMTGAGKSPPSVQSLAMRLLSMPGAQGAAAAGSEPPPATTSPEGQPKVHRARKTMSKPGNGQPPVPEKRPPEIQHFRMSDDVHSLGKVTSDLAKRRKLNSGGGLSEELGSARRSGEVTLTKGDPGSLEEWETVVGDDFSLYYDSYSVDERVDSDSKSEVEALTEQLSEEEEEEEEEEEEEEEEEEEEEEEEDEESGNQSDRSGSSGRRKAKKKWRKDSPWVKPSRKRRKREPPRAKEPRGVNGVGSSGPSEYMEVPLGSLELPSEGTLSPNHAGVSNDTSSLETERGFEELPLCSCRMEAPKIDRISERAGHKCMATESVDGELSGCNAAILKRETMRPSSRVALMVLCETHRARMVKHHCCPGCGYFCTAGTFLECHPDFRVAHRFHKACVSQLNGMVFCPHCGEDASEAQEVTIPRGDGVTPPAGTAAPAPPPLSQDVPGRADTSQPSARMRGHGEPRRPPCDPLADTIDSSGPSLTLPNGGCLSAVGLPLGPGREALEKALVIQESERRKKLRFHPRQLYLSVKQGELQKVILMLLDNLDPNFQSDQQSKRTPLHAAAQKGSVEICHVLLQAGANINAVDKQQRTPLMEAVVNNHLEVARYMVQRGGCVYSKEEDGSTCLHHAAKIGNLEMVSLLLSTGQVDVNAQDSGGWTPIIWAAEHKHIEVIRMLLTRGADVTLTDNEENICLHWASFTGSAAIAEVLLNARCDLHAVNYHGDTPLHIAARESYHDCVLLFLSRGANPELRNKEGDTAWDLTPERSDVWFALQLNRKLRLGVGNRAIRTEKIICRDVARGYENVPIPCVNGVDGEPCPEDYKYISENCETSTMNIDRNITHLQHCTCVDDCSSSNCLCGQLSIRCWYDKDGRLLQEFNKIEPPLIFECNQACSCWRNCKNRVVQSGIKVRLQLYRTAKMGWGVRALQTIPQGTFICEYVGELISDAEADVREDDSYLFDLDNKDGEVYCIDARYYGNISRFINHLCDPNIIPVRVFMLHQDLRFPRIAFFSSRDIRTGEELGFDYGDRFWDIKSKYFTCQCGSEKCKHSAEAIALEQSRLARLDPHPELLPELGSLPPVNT
SMILES,Potency,"activity, negative = inhibition"
O=C1C2CCCCC2C(=O)N1c1ccc(NC2CCCCC2)c([N+](=O)[O-])c1 (centres undefined),active: 8.91 µM,
Cc1nnc2sc(SCC(=O)Nc3ccc(Cl)cc3)nn2c1=O,inactive,
COc1ccc(C2C(C(=O)N3CCCC3)c3cc(OC)c(OC)cc3C(=O)N2C)cc1 (centres undefined),inactive,
CC1CN(CCCCSc2ccc(Cl)cc2)CC(C)O1 (centres undefined),active: 22.4 µM,
CNc1ccc(S(=O)(=O)NCC(=O)NCCCc2ccccc2)cc1[N+](=O)[O-],active: 39.8 µM,
COc1cccc(-n2nc(C(=O)O)c3ccccc3c2=O)c1,"inconclusive: 35.5 µM [inhibitor, partial curve, poor fit]",
CCOC(=O)C1CCN(C(=O)Nc2ccc3c(c2)nc(C)n3C)CC1,"inconclusive: 1.41 µM [inhibitor, full curve]",
CSc1nnc2c3c4c(sc3c(=O)n(-c3ccccc3)n12)CC(C)(C)OC4,"inconclusive: 35.5 µM [inhibitor, single point]",
CCCS(=O)(=O)c1c(S(=O)(=O)CCC)c2c(N)cccn2c1C(=O)c1ccc(F)cc1,"inconclusive: 2.82 µM [inhibitor, partial curve, poor fit]",
Cc1ccc(C(=O)NC(C)c2ccc3c(c2)OCO3)s1 (centres undefined),inactive,
NC(=O)Cn1cc(/C=N/NC(=O)c2ccc(Cn3cc(Cl)cn3)o2)c(-c2ccccc2)n1,inactive,
CC1Sc2ccc(C(=O)NCc3ccccn3)cc2NC1=O (centres undefined),"inconclusive: 6.31 µM [inhibitor, single point]",
CCNC(=S)NS(=O)(=O)c1ccccc1,active: 28.2 µM,
CN1CCN(c2ccc(NC(=O)c3ccc(Br)o3)cc2)CC1,"inconclusive: 89.1 µM [inhibitor, single point]",
CCOC(=O)CCc1c(C)c(C#N)c2[nH]c3ccccc3n2c1=O,"inconclusive: 0.316 µM [inhibitor, full curve, poor fit]",
COc1ccccc1N1CCN(S(=O)(=O)c2cccc3nsnc23)CC1,"inconclusive: 50.1 µM [inhibitor, partial curve]",
Cc1nn(C(C)C(=O)NNC(=S)Nc2ccc(F)cc2)c(C)c1[N+](=O)[O-] (centres undefined),active: 44.7 µM,
C=CCSC1=N/C(=C\c2cc(OCC)c(OC(C)=O)c([N+](=O)[O-])c2)C(=O)S1,active: 12.6 µM,
CNC(=O)CN(c1cccc2ccccc12)S(C)(=O)=O,,inactive: 9.08% [at 12.7 µM]
O=C(Nc1cccc(C(F)(F)F)c1)c1cccc(C(=O)Nc2cccc(C(F)(F)F)c2)c1,inactive,
O=C(c1ccc(N2CCCCC2)c([N+](=O)[O-])c1)N(c1ccccn1)c1ccccn1,"inconclusive: 44.7 µM [inhibitor, partial curve, poor fit]",
O=C1CCCN1CCC1CCN(C2CC(=O)N(c3ccc(F)cc3)C2=O)CC1 (centres undefined),active: 14.1 µM,

SMILES,Potency,"activity, negative = inhibition"
COc1ccc(OC)c(C2C=C(c3ccc(C)c(C)c3)Nc3nnnn32)c1 (centres undefined),"inconclusive: 8.91 µM [inhibitor, partial curve]",
COc1ccccc1CNC(=O)CCC1N=C2c3ccccc3N=C(SCc3ccc(Cl)cc3)N2C1=O (centres undefined),inactive,
COc1ccc(-c2nc(C)c(C(C)=O)n2O)cc1OC,"inconclusive: 22.4 µM [inhibitor, single point]",
O=C(CSc1nnnn1-c1cccc(C(=O)O)c1)NC(c1ccccc1)c1ccccc1,"inconclusive: 89.1 µM [inhibitor, partial curve, poor fit]",
COCCCNC(=O)CCCn1c(=O)c2cccn2c2ccccc21,inactive,
Cc1cc2cc(CN(Cc3ccco3)C(=O)C3CCCCC3)c(=O)[nH]c2cc1C,"inconclusive: 70.8 µM [inhibitor, single point]",
COc1ccc(C2C(C(C)=O)=C(O)C(=O)N2c2nccs2)cc1OC (centres undefined),"inconclusive: 17.8 µM [inhibitor, partial curve, poor fit]",
CCn1c(-c2cc3ccccc3cc2O)n[nH]c1=S,"inconclusive: 1.41 µM [inhibitor, full curve, poor fit]",
CCOC(=O)c1cnc(SCC(=O)Nc2nc(C)c(C)s2)nc1N,"inconclusive: 89.1 µM [inhibitor, single point]",
S=C1NC(c2ccccc2)N2C(=S)NC(c3ccccc3)N12 (centres undefined),"inconclusive: 0.891 µM [inhibitor, single point]",
COc1ccc(-n2nc3c(N4CCC(C(=O)NCCc5ccccc5)CC4)nnc(C)c3c2C)cc1,"inconclusive: 3.98 µM [inhibitor, partial curve, poor fit]",
CCCC(=O)Nc1ccc2c(c1)nc1n2CCOC1,"inconclusive: 89.1 µM [inhibitor, single point]",
Cc1cc(NS(=O)(=O)c2ccc(NC(=O)CSc3nc4sc(C(=O)O)c(C)c4c(=O)[nH]3)cc2)no1,"inconclusive: 50.1 µM [inhibitor, partial curve]",
CC(C)c1ccc(N(C(=O)CNC(=O)c2ccco2)C(C(=O)NC2CCCC2)c2ccncc2)cc1 (centres undefined),inactive,
COc1ccc(-n2ncc3c(NCCN4CCOCC4)ncnc32)cc1,"inconclusive: 79.4 µM [inhibitor, single point]",
COc1cccc2cc(-c3nnc(SCC(=O)Nc4nc(C)cs4)n3C)oc12,"inconclusive: 44.7 µM [inhibitor, partial curve, poor fit]",
Cc1ccc(-c2nnc(Nc3ccccc3)c3ccccc23)cc1S(=O)(=O)N1CCN(C)CC1,"inconclusive: 3.55 µM [inhibitor, partial curve, poor fit]",
CC(C)(C)c1ccc(C(=O)N(Cc2ccc(F)cc2)Cc2ccco2)cc1,"inconclusive: 0.562 µM [inhibitor, partial curve, poor fit]",
CS(=O)(=O)N(CCC#N)Cc1ccc(/C=C2\C(=O)Nc3ccccc32)o1,active: 44.7 µM,
Cc1cnc(C(=O)OCC(=O)Nc2ccccc2-c2ccccc2)cn1,,inactive: -1.51% [at 12.7 µM]
Cc1cc(/C=N/NC(=O)C(O)(c2ccccc2)c2ccccc2)c(C)n1-c1ccccc1,"inconclusive: 39.8 µM [inhibitor, single point]",
COc1cc(Cl)c(C)cc1NC(=O)c1cnn(-c2ccc(F)cc2F)c1C1CCN(C(=O)OC(C)(C)C)CC1,"inconclusive: 15.8 µM [inhibitor, partial curve, poor fit]",

SMILES,Potency,"activity, negative = inhibition"
CCOc1ccc(C2=NNC(c3cccs3)=Nc3ccc(OC)cc32)cc1OCC,"inconclusive: 22.4 µM [inhibitor, single point]",
COc1ccc2cc(CNc3ccc(C)cc3)c(=O)n(CC(=O)Nc3cccc(Cl)c3C)c2c1,"inconclusive: 4.47 µM [inhibitor, partial curve, poor fit]",
COc1ccccc1C(=O)N/N=C(\C)c1ccc(NC(=O)Cc2ccccc2)cc1,"inconclusive: 70.8 µM [inhibitor, partial curve, poor fit]",
CCCCNC(=O)C1CCN(C/C(C)=C/c2ccccc2)CC1,,inconclusive: -66.7% [inhibitor]
Cc1cc(C)nc(SCNC(=O)c2ccc(F)cc2)n1,"inconclusive: 8.91 µM [inhibitor, single point]",
O=C(Nc1ccc(NS(=O)(=O)c2ccc([N+](=O)[O-])cc2)cc1)c1ccco1,"inconclusive: 79.4 µM [inhibitor, single point]",
CC(C)CCNC(=O)c1ccc2c(SCC(=O)O)c3c(nc2c1)CCCC3,"inconclusive: 89.1 µM [inhibitor, single point]",
CCn1c(SCC(=O)c2cc(OC)ccc2OC)nnc1C(C)C,"inconclusive: 44.7 µM [inhibitor, partial curve, poor fit]",
O=C(c1ccccc1)N1CCN(Cc2ccccc2C(F)(F)F)CC1,"inconclusive: 35.5 µM [inhibitor, partial curve]",
C=CCOc1ccc(C2/C(=C(/O)c3ccc(OC)cc3)C(=O)C(=O)N2CCN2CCNCC2)cc1 (centres undefined),inactive,
CN(C)c1ccc(C(=O)N2CCN(c3cc(C(F)(F)F)nc4ccccc34)CC2)cc1,"inconclusive: 14.1 µM [inhibitor, partial curve, poor fit]",
CC1CCCN(C(=O)Nc2cccc(NC(=O)N3CCCC(C)C3C)c2)C1C (centres undefined),"inconclusive: 50.1 µM [inhibitor, partial curve, poor fit]",
Cc1ccc(N(Cc2cc3cccc(C)c3[nH]c2=O)S(=O)(=O)c2ccccc2)c(C)c1,"inconclusive: 79.4 µM [inhibitor, single point]",
CCN(CCCNC(=O)c1ccc(Sc2ccc(Cl)cc2)c(NC(C)=O)c1)c1ccccc1,"inconclusive: 14.1 µM [inhibitor, partial curve]",
Cc1ccc(NC(=O)CN2C(=O)COc3ccc(S(=O)(=O)N4CCOCC4)cc32)cc1F,inactive,
COc1ccc(Sc2nc(-c3ccccc3)ncc2C(=O)O)cc1,"inconclusive: 89.1 µM [inhibitor, partial curve, poor fit]",
Nc1c(C(=O)O)nnn1Cc1ccccc1,"inconclusive: 89.1 µM [inhibitor, single point]",
O=S(=O)(c1ccccc1)c1nc(-c2cccc(Cl)c2)oc1N1CCOCC1,active: 39.8 µM,
CC(/C=C/c1ccc(N(C)C)cc1)=N\N=C1\NC(=O)CC(C(=O)Nc2ccccc2)S1 (centres undefined),"inconclusive: 28.2 µM [inhibitor, single point]",
COc1ccc(OC)c(NC(=O)C2C3CCC(O3)C2C(=O)O)c1 (centres undefined),"inconclusive: 10 µM [inhibitor, partial curve, poor fit]",
